Data reported in PubChem BioAssay (NCATS).
Inconclusive results, whose numbers are uncertain, are shown with a selection of clear calls. For part of these data: Potencies of inconclusive entries are left out as doubtful fits. Calls of active or inactive are those of the source. Calls come from the whole dose curve; as a rule, active = well fitted curve in the direction sought with a large enough effect; inconclusive = small, poorly fitted or top-dose-only effect, or another doubt; inactive = no such curve, though single readings can be large; an effect the other way counts as inactive or inconclusive.

Key:
[1] = qHTS of pediatric cancer cell lines to identify multiple opportunities for drug repurposing: Primary screen for SK-N-SH cells (AID 1347098); note: potency is the fitted concentration of half-maximal effect; nearly all actives have a fitted effect of over 65% in size
Summary of the method: (§1)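 Cells (500-1,000/well) rested 5 h, then received compounds for 48 h; metabolically active cells were measured by CellTiter-Glo luminescence. Final concentrations spanned up to 46 µM (MIPE, 11-point) or 0.59 nM-46 µM (NPC, 8-point) in primary screens, 11-point in follow-ups.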

[2] = qHTS of pediatric cancer cell lines to identify multiple opportunities for drug repurposing: Primary screen for BT-12 cells (AID 1347101); note: potency is the fitted concentration of half-maximal effect; nearly all actives have a fitted effect of over 25% in size
Summary of the method: as §1

[3] = qHTS of pediatric cancer cell lines to identify multiple opportunities for drug repurposing: Primary screen for control Hh wild type fibroblast cells (AID 1347106);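 note: a drop in luminescence marks cytotoxicity and a rise apparent proliferation; nearly all actives have a fitted effect of over 55% in size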
Summary of the method: (§2)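 Cells (500-1,000/well) in growth media were settled 5 h at 37 degrees C, then given compounds for 48 h. Viability was read as CellTiter-Glo luminescence. Primary runs used MIPE at 11 points (0.78 nM-46 µM) and NPC at 8 points (0.59 nM-46 µM); follow-ups used 11 points.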

[4] = qHTS of pediatric cancer cell lines to identify multiple opportunities for drug repurposing: Primary screen for Rh41 cells (AID 1347108); note: potency is the fitted concentration of half-maximal effect; nearly all actives have a fitted effect of over 70% in size
Summary of the method: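 Plated cells (500-1,000 per well, growth media) were allowed to settle for 5 hours, treated with compound dilutions for 48 hours, then lysed with CellTiter-Glo for 15 min at room temperature before luminescence reading.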

[5] = qHTS of pediatric cancer cell lines to identify multiple opportunities for drug repurposing: Confirmatory screen for NB1643 cells (AID 1347109); note: nearly all actives have a fitted effect of over 45% in size
Summary of the method: as §2

[6] = qHTS of pediatric cancer cell lines to identify multiple opportunities for drug repurposing: Confirmatory screen for SK-N-MC cells (AID 1347111);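 note: cells exposed to compound for 48 h before the readout; nearly all actives have a fitted effect of over 70% in size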
Summary of the method: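 Metabolically active cells were quantified by ATP-dependent luminescence (CellTiter-Glo, 15 min at room temperature) following 48 h treatment. Cells had been plated at 500-1,000 per well and settled for 5 h beforehand.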

[7] = qHTS of pediatric cancer cell lines to identify multiple opportunities for drug repurposing: Confirmatory screen for LAN-5 cells (AID 1347113); note: potency is the fitted concentration of half-maximal effect; nearly all actives have a fitted effect of over 65% in size
Summary of the method: as §2

[8] = qHTS of pediatric cancer cell lines to identify multiple opportunities for drug repurposing: Confirmatory screen for SJ-GBM2 cells (AID 1347116); note: potency is the fitted concentration of half-maximal effect; nearly all actives have a fitted effect of over 60% in size
Summary of the method: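 Viability measured as metabolically active cells via CellTiter-Glo luminescence following 48 hours of compound exposure, 11-point dilutions in confirmatory testing. 500-1,000 cells/well plated 5 hours before dosing; controls were DMSO and 2.3 µM bortezomib.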

[9] = qHTS of pediatric cancer cell lines to identify multiple opportunities for drug repurposing: Confirmatory screen for TC32 cells (AID 1347118);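 note: cells exposed to compound for 48 h before the read; nearly all actives have a fitted effect of over 65% in size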
Summary of the method: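 TC32 cells, 500-1,000/well in growth medium, compound-treated 48 h at 37 °C; viability from CellTiter-Glo luminescence. Primary screen: MIPE 11-point (0.78 nM–46 µM final), NPC 8-point (0.59 nM–46 µM final); confirmatory at 11-point dilutions.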

[10] = qHTS of pediatric cancer cell lines to identify multiple opportunities for drug repurposing: Confirmatory screen for MG 63 (6-TG R) cells (AID 1347119); conditions: MG-63 (6-TG resistant) osteosarcoma viability; series mostly up to 45.9 µM; note: nearly all actives have a fitted effect of over 55% in size
Summary of the method: as §2

[11] = qHTS of pediatric cancer cell lines to identify multiple opportunities for drug repurposing: Confirmatory screen for RD cells (AID 1347124);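 note: cells exposed to compound for 48 h before viability readout; nearly all actives have a fitted effect of over 65% in size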
Summary of the method: as §2

[12] = qHTS of pediatric cancer cell lines to identify multiple opportunities for drug repurposing: Confirmatory screen for Rh18 cells (AID 1347125); note: nearly all actives have a fitted effect of over 55% in size
Summary of the method: as §2

[13] = qHTS of pediatric cancer cell lines to identify multiple opportunities for drug repurposing: Confirmatory screen for Saos-2 cells (AID 1347127); note: potency is the fitted concentration of half-maximal effect; nearly all actives have a fitted effect of over 60% in size
Summary of the method: as §2

[14] = qHTS of pediatric cancer cell lines to identify multiple opportunities for drug repurposing: Confirmatory screen for OHS-50 cells (AID 1347128);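 note: compound exposure lasted 48 h at 37 degrees C; nearly all actives have a fitted effect of over 55% in size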
Summary of the method: as §2

[15] = Primary qHTS for inhibitors of nuclear receptor binding SET domain protein 2 (NSD2) in an isogenic RCH-ACV NSD2 p.E1099K mutant (9B) (AID 1645876); conditions: activity change, negative = viability loss: at 44.9 µM (top of the series) unless noted; note: nearly all actives have a fitted effect of over 70% in size; note: potency is the fitted concentration of half-maximal effect
[16] = Primary qHTS for inhibitors of nuclear receptor binding SET domain protein 2 (NSD2) in an RCH-ACV wild type WT cells (2C) (AID 1645877); conditions: activity change, negative = cell killing: at 44.9 µM (top of the series) unless noted; note: potency is the fitted concentration of half-maximal effect; nearly all actives have a fitted effect of over 70% in size
[17] = Quantitative High-Throughput drug screen in 47 multiple myeloma cell lines against the NCATS MIPE library collection: AMO1_DSMZ cell viability assay (AID 1918927; note: potency is the fitted concentration of half-maximal effect; nearly all actives have a fitted effect of over 30% in size); conditions: AMO1 myeloma cells viability, CellTiter-Glo ATP luminescence, 48 h; series mostly up to 45.8 µM
Summary of the method: (§3)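 qHTS of the MIPE 4.0 collection: 500 myeloma cells/well, 48 h drug exposure at 37C in 5% CO2, then CellTiter-Glo for 5 min at room temperature before luminescence reading.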

[18] = Quantitative High-Throughput drug screen in 47 multiple myeloma cell lines against the NCATS MIPE library collection: ARP1_JJKsccF8 cell viability assay (AID 1918928; note: nearly all actives have a fitted effect of over 40% in size)
Summary of the method: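 Cell viability inhibition in this qHTS is measured via ATP content (CellTiter-Glo) after 48 h drug exposure at 37 °C. Wells hold 500 cells; DMSO-treated wells define 100% and medium-only wells 0%.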

[19] = Quantitative High-Throughput drug screen in 47 multiple myeloma cell lines against the NCATS MIPE library collection: Karpas620_DSMZ cell viability assay (AID 1918959); note: nearly all actives have a fitted effect of over 30% in size
Summary of the method: as §3

[20] = Quantitative High-Throughput drug screen in 47 multiple myeloma cell lines against the NCATS MIPE library collection: Karpas417_ECACC cell viability assay (AID 1918961); conditions: Karpas417 myeloma viability, CellTiter-Glo ATP luminescence, 48 h; viability (% of DMSO): at 45.8 µM (top of the series); note: potency is the fitted concentration of half-maximal effect
Summary of the method: (§4)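 Luminescent ATP measurement with CellTiter-Glo gives viability, scaled between DMSO-only wells (100%) and media-only wells (0%). Cells, 500 per well, faced library compounds for 48 hours at 37C.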

[21] = Quantitative High-Throughput drug screen in 47 multiple myeloma cell lines against the NCATS MIPE library collection: KHM11_PLB cell viability assay (AID 1918962); note: potency is the fitted concentration of half-maximal effect; nearly all actives have a fitted effect of over 35% in size
Summary of the method: as §3

[22] = Quantitative High-Throughput drug screen in 47 multiple myeloma cell lines against the NCATS MIPE library collection: JIM3_ECACC cell viability assay (AID 1918963; note: nearly all actives have a fitted effect of over 35% in size)
Summary of the method: as §3

[23] = Quantitative High-Throughput drug screen in 47 multiple myeloma cell lines against the NCATS MIPE library collection: JIM1_ECACC cell viability assay (AID 1918964); conditions: JIM1 myeloma viability, CellTiter-Glo ATP luminescence, 48 h; viability (% of DMSO): at 45.8 µM (top of the series)
Summary of the method: as §3

[24] = Quantitative High-Throughput drug screen in 47 multiple myeloma cell lines against the NCATS MIPE library collection: INA6_PLB cell viability assay (AID 1918965)
Summary of the method: as §4
Tags give direction and shape of the fitted curve.

In the case of Nc1[nH]c(=O)ncc1F, the Potency [1] is reported as inconclusive [cytotoxic, single point], the Potency [2] is reported as inconclusive [cytotoxic, partial curve] and the Potency [3] is reported as “inactive”. For the same molecule, the Potency [4] was inconclusive [cytotoxic, partial curve, poor fit], the Potency [5] was “inactive” and the Potency [6] was “inactive”. For the same molecule, the Potency [7] was inconclusive [rising, full curve, poor fit], the Potency [8] was inconclusive [rising, partial curve, poor fit] and the Potency [9] was “inactive”. The Potency [10] was “inactive”, the Potency [11] was “inactive” and the Potency [12] was “inactive”. The Potency [13] was inconclusive [rising, partial curve, poor fit], the Potency [14] was “inactive” and the Potency [15] was inconclusive [inhibitor, single point] and inactive. For the same molecule, the Potency [16] was inconclusive [inhibitor, single point], the Potency [17] was active: 4.69 µM and the Potency [18] was “inactive”. For the same molecule, the Potency [19] was “inactive”, the Potency [20] was inconclusive [cytotoxic, full curve, poor fit] and the Potency [21] was inconclusive [cytotoxic, full curve, poor fit]. For the same molecule, the Potency [22] was “inactive”, the Potency [23] was “inactive” and the Potency [24] was inconclusive [rising, full curve, poor fit].
